The supplement of paper PMC10681739
Over roughly 2,700 sequences, “arbitrary fluorescence units” has its median near 4,100; the highest 2% begin near 54,000. Some of the results follow.

biological target: T1, ETS1 (UniProt P14921); assay: ETS1 binding intensity (PBM fluorescence) (arbitrary fluorescence units); higher = stronger binding; conditions: ETS1 concentration 10 nM
T1 sequence: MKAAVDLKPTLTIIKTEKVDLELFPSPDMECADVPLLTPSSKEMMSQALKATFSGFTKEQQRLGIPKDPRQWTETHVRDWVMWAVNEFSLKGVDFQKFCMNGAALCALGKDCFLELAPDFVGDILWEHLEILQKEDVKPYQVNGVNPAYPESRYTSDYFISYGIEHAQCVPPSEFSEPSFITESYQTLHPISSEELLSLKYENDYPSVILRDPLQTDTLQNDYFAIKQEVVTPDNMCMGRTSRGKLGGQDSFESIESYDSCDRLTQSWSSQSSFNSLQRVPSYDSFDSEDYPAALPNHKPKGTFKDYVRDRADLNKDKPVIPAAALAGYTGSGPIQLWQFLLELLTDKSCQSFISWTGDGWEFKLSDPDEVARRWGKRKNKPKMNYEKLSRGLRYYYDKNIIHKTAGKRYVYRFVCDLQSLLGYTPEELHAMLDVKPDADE
Description: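 gcPBM on wild-type 36-bp genomic probes with two neighbouring ETS1 sites (4-24 bp apart). Recombinant human ETS1 (10 nM) was detected with anti-ETS1 antibody fluorescence. Values are medians over 3 replicate spots. The probes sit in constant array flanks that are not printed.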

| Sequence | ETS1 binding intensity |
| --- | --- |
| AAGCAGGAGGAAACCGGCATGTCACTTCCTCTGCAG | 1290 |
| ATCTGTCAAGGAGCTTCCTTCCGTTTGTGGTTTCAT | 1090 |
| GGGAGGAAGCGCCCCGAGGAGGGTCAGCGGAACACA | 293 |
| CGGGAGGAAGTCGGGCTCGCCGCCTGCCATCCGCGG | 1040 |
| CAGACCCGGAAGCCACTTACAGTAACTTCCGGCGAG | 14400 |
| CATTTACTTCCTTGCCTGTTGCGGCCTTCCTGGCTG | 5400 |
| CCACCTTCCTGCCTCATCAACTCACACCGGATTGAT | 7700 |
| ATGAGGAAGCAGAAACTATGAGTAAACAGGAAGCTT | 383 |
| TGTAGGAGCTTCCTTGCAGCCTCAGGATGCCGAATT | 517 |
| ACGACAAGGAAGCTGAGTCAGAGAGAGGAAGTATGA | 249 |
| CTAAGATACAGGATGCCCTTACTTCCTGTCTGTGGC | 11900 |
| CCCTGCGACTGACATCCTGCTTCCTGTGCTGCGTTT | 13500 |
| CGCGCGCAGTTTCCTGGAGACCCGGAAGCAGATTAC | 5800 |
| ATGTAAAGAGGAAGTGACTCATTCTTCCTGGTGGTG | 3720 |
| AGGGACCGGAACTGAATGGGAGTACCGGAAGTGCCC | 16100 |
| CACCCCACCGTTTCCTGTACCAGGAAGCTGAGGCCC | 20600 |
| ACCTCCCGGGACTTCCGGCCGGAAACCAAGGCCCCA | 41300 |
| CGTCAGAGCAGGAAGTGTTTGAGGAAGTCGCGCCGC | 5390 |
| ATGGAGAGGAAGCCACAGGGTTGACAGGAAACCAGA | 699 |
| ATAAACAATGAGGAAGCCAGTTTCCTGTTTGGGTTG | 4970 |
| TGGACGGAAGTCACTTCTGAGAAGGGCGGAAGTGTC | 5130 |
| CGCGGCCTTTCATTTCCGCTTCCGGTGCGGGCCGCG | 32900 |
| GGATGCGGAAGGTAAGGGCTGCAGGCTTCCGGGCCG | 918 |
| CGGGACCGAGGGAGGAAGTCGGAAACTGGTGGCCGC | 1010 |
| TGCAGGCAATGTTTCCTGCCAGGATGTTGATCAAAG | 4960 |
| CAAGCTCAGGAAGAAGCCACAGCCGGAAGTTCACCT | 3010 |
| TGCATTTCCTCCCCTCAGGTTATTCCCTTCCGTTGC | 15300 |

| Sequence | ETS1 binding intensity |
| --- | --- |
| TCCCTGCCTGGCTTCCTGGCATCCTGCCTCTAACCT | 4480 |
| GTCGAGGCTTCCCGTCGCCGGCACTTCCTCTTGCGG | 3860 |
| GGAACGGAAGCCGGGAGGGAACGAGGGCGGAAGCGG | 3190 |
| CGTCCGGATGCCCCTCCCGGCCGCCTCTTCCTGCCG | 1980 |
| CCCCACATCCGGTGCGGCGACGCCACTTCCGCCCAC | 78100 |
| GTGCCGGGATGTTGCAGCTCTCGGCGAGGAAATGTC | 270 |
| GAGGATATTGCTTCCTGGACAGGAACTGCTTCTCAG | 5440 |
| CGGGTTCCGGTCAAGCCCACAGAGAACCGGAAGTCC | 17100 |
| CATCCTTGGCATTTCCTCTGAGGAAGCTCGCACCCC | 3550 |
| GTTCCCAGGAAGTAGCTTCTTAGGCAGGATGTGGCA | 3930 |
| GTATTTCCTACCAATTGTGACGTCACCCTTCCTCCC | 5550 |
| GCGGTTACTTCCGGTCACTTTCGCCGGAACCTGACT | 86200 |
| TGTGACTTCCTGACGCCCGTCCAGTCCGGAACCTCC | 15700 |
| TAACAGGAAGCATGACTGGGAGGTCTCAGGAAACTT | 2110 |
| GAGGCAGGGCTTCCTGCCCGGCAGGAAGGACTCGGC | 14600 |
| CAGACCCGAGAGGAAATCAGTTTCCCGGACCTTTGA | 1020 |
| CTATGTAGTAAGCGGATACTTCCGGGCCTTGTCTTG | 8930 |
| CAACAGGAAGTCTCATGCGTTGCTGGCGGAACTGCA | 8660 |
| CTCGCAGGCTTCCCGGCTGCAACTTCCGGCGCATGC | 14600 |
| TCACCAGGAAGCAGAGTTCACCCTGGCGGAAGAGGT | 533 |
| TGCCGGAGGAAGTCCCAGCCTCAGGTTTCCGGGGCT | 941 |
| GGGCATTTCCTCCCTAACTCAATTTCAGGAAGCAGG | 12500 |
| CATTAGCAGTCAGGAAGCTCAGGAAGATTCAAGAGA | 241 |
| GAGCCGTTTCCCTCTGTGCCTCCCTCGGAAACCCGC | 650 |
| AACCCGGAAGCACCGTGGCCGGCGCGCCGGAAATGA | 7740 |
| CTCAACATTCTTCCTGGCCCTGTTTCCTGTGAAATG | 3760 |
| CAACAGGATACCGCCCTTGGTGAGGCTTTCCTGCTA | 991 |

| Sequence | ETS1 binding intensity |
| --- | --- |
| GACAGGAAGTGCCCTCCTAAAGGCTGCAGGATATGA | 18700 |
| GACTTTGTTTCCTCCATTCTACCAGGAAACAGACCA | 2280 |
| ACAAGAGGAAGCACCAGGGTCAGTCAGGAAGTGGGC | 671 |
| GAGGCGGAAGTGGCGGGCTCTGTGGGCGGAAGGGGC | 8430 |
| TGGGGTCTTCCGGTTGGACCCCTGCTTCCGCTGATT | 24400 |
| GCGCTTCCTGCCCGCCGGGCCGCCGCGTTTCCTGGG | 41500 |
| GTTCAGCTTTCAGGATGTAACATCCCTGTTGCTGGC | 850 |
| TTACTTCCGTTTGTTTAACAGCTGGCCCGGAAGTTT | 35300 |
| GGCAAAAACCCACATCCTCTTCCGCTGGCTCCACCT | 8480 |
| GCTCAGGATGTACCCCCGTGGCTGCGGTTTCCGGCG | 2290 |
| AGAAGGGAAGTGCCAGGGTAAGCAGACAGGAAGTCA | 2240 |
| CCCCAGCCCTGCATCCGCCCGGAAGGCGTCCCCTTA | 6400 |
| CAGCTGACCACATCCTGGGCAGGATGGGGCAGGAGG | 5180 |
| CGCGGTTTCCTTCACCAAGCAGCAATTTCCGTTGGC | 3610 |
| TACCGCCCCGCGCTTCCGCTTCCGGTCTGGGGAGAG | 34500 |
| GATCGAGACCATCCTGGCTAACAGGATGAAACCCCG | 313 |
| GTGGCGCCCGGAACACCCCGTGCCGGAAGCTCCATG | 761 |
| CTGAAACAGGAAACAGTAAAGACAGGAAGGTTATCT | 8910 |
| TGCCCTGCCTGCTTCCTCCCTTCCTTTCAACCCCAA | 2350 |
| TGCGGCACAGGATGAATGAGCAATTCCGGGCGCGCG | 354 |
| CCCCGGATCTAGGCGGTCGTCACCGACAGGAAGCGA | 671 |
| AAGTGAGTATTTCCTGCCTTGATTTCCTGACATTTC | 28700 |
| GGTACAAACATTTCCTCTGCAGGAAGGAGCAGATGC | 2740 |
| GGTCCAGGGGCATCCTGTGAAAGGAAGGGGCAGCAG | 3710 |
| CCCACAGGATGCAGTGCCTGATGCCACTTCCGAGCA | 3090 |
| TCCGCGTCCCCACATCCTCCGGATGCCCAGCGGTTG | 1980 |
